# Test results published in the supplement of paper PMC8728848.
# The other results are listed elsewhere or left out.
# B1: Epa15 (Candida glabrata) (protein)
# chain: MGSSHHHHHHSSGLVPRGSHMASDPTTFPLGCSPEFTKTKKGLSMELYRYDYLPPGSYPCWDSAYLNPSYPRTGYKAKKLIATVDGVSGDINFKFNPKFGCKAIPDYLPSNFNYHEPITITNFTMILYGYFMPKTTAFHTFYVTADDLLFMNFGAGNAFDCCRREETADKFGNYAAYSVWGKKSLKNELTVYLHTGVYYPIRLFYNNRDYIAQLDIRFKTEHSNAIITNFTDYFYSVDDSSLGCPGLI
# How the values were obtained:
# Experiment in all cases: glycan array binding signal (z-score within array); higher = stronger binding
# Details in all cases: glycan notation: IUPAC condensed, linker removed
# [1] = molecular target: Fuc(a1-2)Gal(b1-4)GlcNAc(b1-3)Gal(b1-4)GlcNAc
# Procedure, shortened: (§1)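 The binding signal is a Z-score computed within each array. Data were drawn from 3228 arrays in the Consortium for Functional Glycomics database, restricted to those with a known protein sequence. Scores were averaged over arrays of the same protein sequence at different concentrations or buffers, and over linkers, and negative values can be taken as non-binding.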
# [2] = molecular target: Fuc(a1-2)Gal(b1-4)GlcNAc(b1-3)Gal(b1-4)GlcNAc(b1-2)Man(a1-3)[Fuc(a1-2)Gal(b1-4)GlcNAc(b1-3)Gal(b1-4)GlcNAc(b1-2)Man(a1-6)]Man(b1-4)GlcNAc(b1-4)GlcNAc
# Procedure, shortened: as §1
# [3] = molecular target: Fuc(a1-2)Gal(b1-4)GlcNAc(b1-3)Gal(b1-4)GlcNAc(b1-3)Gal(b1-4)GlcNAc
# Procedure, shortened: as §1
# [4] = molecular target: Fuc(a1-2)Gal(b1-4)GlcNAc(b1-3)GalNAc
# Procedure, shortened: as §1
# [5] = molecular target: Fuc(a1-2)Gal(b1-4)GlcNAc(b1-3)[Fuc(a1-2)Gal(b1-4)GlcNAc(b1-6)]GalNAc
# Procedure, shortened: as §1
# [6] = molecular target: Fuc(a1-2)Gal(b1-4)GlcNAc(b1-3)[Fuc(a1-3)[Gal(b1-4)]GlcNAc(b1-6)]Gal(b1-4)Glc
# Procedure, shortened: as §1
# [7] = molecular target: Fuc(a1-2)Gal(b1-4)GlcNAc(b1-6)GalNAc
# Procedure, shortened: as §1
# [8] = molecular target: Fuc(a1-2)Gal(b1-4)GlcNAc6S
# Procedure, shortened: as §1
# [9] = molecular target: Fuc(a1-2)Gal(b1-4)[Fuc(a1-3)]GalNAc(b1-3)Gal(b1-4)[Fuc(a1-3)]GlcNAc
# Procedure, shortened: as §1
# [10] = molecular target: Fuc(a1-2)Gal(b1-4)[Fuc(a1-3)]GalNAc(b1-3)Gal(b1-4)[Fuc(a1-3)]GlcNAc(b1-3)Gal(b1-4)[Fuc(a1-3)]GalNAc
# Procedure, shortened: as §1
# [11] = molecular target: Fuc(a1-2)Gal(b1-4)[Fuc(a1-3)]GlcNAc
# Procedure, shortened: as §1
# [12] = molecular target: Fuc(a1-2)Gal(b1-4)[Fuc(a1-3)]GlcNAc(b1-2)Man(a1-3)[Fuc(a1-2)Gal(b1-4)[Fuc(a1-3)]GlcNAc(b1-2)Man(a1-6)]Man(b1-4)GlcNAc(b1-4)[Fuc(a1-6)]GlcNAc
# Procedure, shortened: as §1
# [13] = molecular target: Fuc(a1-2)Gal(b1-4)[Fuc(a1-3)]GlcNAc(b1-2)[Fuc(a1-2)Gal(b1-4)[Fuc(a1-3)]GlcNAc(b1-4)]Man(a1-3)[Fuc(a1-2)Gal(b1-4)[Fuc(a1-3)]GlcNAc(b1-2)Man(a1-6)]Man(b1-4)GlcNAc(b1-4)GlcNAc
# Procedure, shortened: as §1
# [14] = molecular target: Fuc(a1-2)Gal(b1-4)[Fuc(a1-3)]GlcNAc(b1-3)Gal(b1-4)[Fuc(a1-3)]GlcNAc
# Procedure, shortened: as §1
# [15] = molecular target: Fuc(a1-2)Gal(b1-4)[Fuc(a1-3)]GlcNAc(b1-3)Gal(b1-4)[Fuc(a1-3)]GlcNAc(b1-3)Gal(b1-4)[Fuc(a1-3)]GlcNAc
# Procedure, shortened: as §1
# [16] = molecular target: Fuc(a1-2)Gal(b1-4)[Fuc(a1-3)]GlcNAc(b1-3)GalNAc
# Procedure, shortened: as §1
# [17] = molecular target: Fuc(a1-2)Gal(b1-4)[Fuc(a1-3)]GlcNAc(b1-3)[Neu5Ac(a2-6)Gal(b1-4)GlcNAc(b1-6)]Gal(b1-4)Glc
# Procedure, shortened: as §1
# [18] = molecular target: Fuc(a1-2)Gal3S(b1-4)GlcNAc
# Procedure, shortened: as §1
# [19] = molecular target: Fuc(a1-2)Gal6S(b1-3)GlcNAc
# Procedure, shortened: as §1
# [20] = molecular target: Fuc(a1-2)Gal6S(b1-3)GlcNAc6S
# Procedure, shortened: as §1
# [21] = molecular target: Fuc(a1-2)Gal6S(b1-4)Glc
# Procedure, shortened: as §1
# [22] = molecular target: Fuc(a1-2)Gal6S(b1-4)Glc6S
# Procedure, shortened: as §1
# [23] = molecular target: Fuc(a1-2)Gal6S(b1-4)GlcNAc
# Procedure, shortened: as §1
# [24] = molecular target: Fuc(a1-2)GlcNAc
# Procedure, shortened: as §1
# [25] = molecular target: Fuc(a1-2)[Gal(a1-3)]Gal
# Procedure, shortened: as §1
# [26] = molecular target: Fuc(a1-2)[Gal(a1-3)]Gal(b1-3)GalNAc
# Procedure, shortened: as §1
# [27] = molecular target: Fuc(a1-2)[Gal(a1-3)]Gal(b1-3)GalNAc(b1-3)Gal(a1-4)Gal(b1-4)Glc
# Procedure, shortened: as §1
# [28] = molecular target: Fuc(a1-2)[Gal(a1-3)]Gal(b1-3)GlcNAc
# Procedure, shortened: as §1
# [29] = molecular target: Fuc(a1-2)[Gal(a1-3)]Gal(b1-3)GlcNAc(b1-2)Man(a1-3)[Fuc(a1-2)[Gal(a1-3)]Gal(b1-3)GlcNAc(b1-2)Man(a1-6)]Man(b1-4)GlcNAc(b1-4)GlcNAc
# Procedure, shortened: as §1
# [30] = molecular target: Fuc(a1-2)[Gal(a1-3)]Gal(b1-3)GlcNAc(b1-2)Man(a1-3)[Fuc(a1-2)[Gal(a1-3)]Gal(b1-3)GlcNAc(b1-2)Man(a1-6)]Man(b1-4)GlcNAc(b1-4)[Fuc(a1-6)]GlcNAc
# Procedure, shortened: as §1
binder,measurement,setting,value
B1,glycan array binding signal (z-score),[1],-0.547
same,glycan array binding signal (z-score),[2],-0.322
same,glycan array binding signal (z-score),[3],-0.205
same,glycan array binding signal (z-score),[4],-0.4
same,glycan array binding signal (z-score),[5],0.374
same,glycan array binding signal (z-score),[6],-0.321
same,glycan array binding signal (z-score),[7],0.159
same,glycan array binding signal (z-score),[8],-0.4
same,glycan array binding signal (z-score),[9],-0.284
same,glycan array binding signal (z-score),[10],-0.281
same,glycan array binding signal (z-score),[11],-0.361
same,glycan array binding signal (z-score),[12],0.04
same,glycan array binding signal (z-score),[13],0.306
same,glycan array binding signal (z-score),[14],-0.428
same,glycan array binding signal (z-score),[15],-0.446
same,glycan array binding signal (z-score),[16],1.59
same,glycan array binding signal (z-score),[17],-0.092
same,glycan array binding signal (z-score),[18],-0.532
same,glycan array binding signal (z-score),[19],-0.251
same,glycan array binding signal (z-score),[20],0.063
same,glycan array binding signal (z-score),[21],-0.434
same,glycan array binding signal (z-score),[22],-0.401
same,glycan array binding signal (z-score),[23],-0.285
same,glycan array binding signal (z-score),[24],-0.263
same,glycan array binding signal (z-score),[25],-0.319
same,glycan array binding signal (z-score),[26],-0.127
same,glycan array binding signal (z-score),[27],-0.503
same,glycan array binding signal (z-score),[28],-0.451
same,glycan array binding signal (z-score),[29],-0.239
same,glycan array binding signal (z-score),[30],0.153
